Measurements as given in publication PMC6212790.
This is one part of the list. At the low end of the ranking the order means little.

Target: T1, GST-Rok (full length) (UniProt O34857)
T1 sequence: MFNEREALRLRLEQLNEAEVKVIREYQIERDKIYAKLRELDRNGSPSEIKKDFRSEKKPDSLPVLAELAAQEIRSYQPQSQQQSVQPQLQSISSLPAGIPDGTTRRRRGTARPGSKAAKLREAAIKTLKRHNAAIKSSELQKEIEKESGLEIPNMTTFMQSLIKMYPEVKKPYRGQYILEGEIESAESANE
Assay: protein binding microarray;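 note: rank score from −0.5 (least bound) to 0.5 (best bound)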
Conditions: Rok is a gene silencer of Bacillus subtilis; high values mean tight binding; most listed sequences are background and not binding sites; double strand, one strand shown

| Sequence | binding signal |
| --- | --- |
| CGAATTAA | 0.0899 E-score |
| GGAAGAGA | -0.12 E-score |
| GAAACCTC | -0.134 E-score |
| GCAAATGC | -0.0517 E-score |
| ACTAAGGG | -0.125 E-score |
| CAAAAATA | 0.208 E-score |
| ATAGCCCA | 0.0622 E-score |
| GGTAATGA | -0.0157 E-score |
| CTGTATCA | 0.0787 E-score |
| CTACAGGA | -0.04 E-score |
| CCTAATGA | -0.219 E-score |
| GGAGTTAA | -0.0809 E-score |
| AATGTGTA | 0.248 E-score |
| GCAGTTGA | -0.00855 E-score |
| ACGGTGGG | -0.168 E-score |
| ATGCGGCC | -0.295 E-score |
| AATAGTCC | 0.052 E-score |
| AAATTGCC | 0.052 E-score |
| ATAGACTA | 0.186 E-score |
| CCTCGCGA | -0.307 E-score |
| GAGAACAC | 0.105 E-score |
| AACGCCTA | -0.101 E-score |
| ATCACGCA | 0.0255 E-score |
| AATGATTG | -9.44e-05 E-score |
| AACTTCGC | 0.196 E-score |

| Sequence | binding signal |
| --- | --- |
| ATACTGCC | -0.0341 E-score |
| TGTATACA | 0.351 E-score |
| CTAATGGC | -0.143 E-score |
| CCAGCGAG | -0.0971 E-score |
| ACACCCGA | -0.121 E-score |
| TAATTGTA | 0.329 E-score |
| CTTAATGA | -0.158 E-score |
| CATCTCGC | -0.0694 E-score |
| ATAAGAAA | 0.141 E-score |
| AATACGTA | 0.331 E-score |
| CTCGTCAC | -0.0909 E-score |
| CCAAACTA | 0.364 E-score |
| CTTTCCAC | -0.065 E-score |
| CCGTGTTA | 0.139 E-score |
| GCGATCCA | -0.132 E-score |
| GCTGAAAA | -0.146 E-score |
| CTTTGGCA | -0.203 E-score |
| ATCCCGCA | -0.0218 E-score |
| AACGACAA | 0.177 E-score |
| GCCGAAGA | -0.0924 E-score |
| CGCCTTCC | -0.298 E-score |
| ATTCTCTG | -0.0409 E-score |
| GACTTGAC | -0.201 E-score |
| GTCGAGAA | 0.12 E-score |
| AGTATTTG | 0.31 E-score |

| Sequence | binding signal |
| --- | --- |
| ATGAATAG | 0.0694 E-score |
| GTGAGAAC | 0.235 E-score |
| GAAAAAGC | -0.0987 E-score |
| ACGCGAGC | 0.0365 E-score |
| ACCGCCAG | -0.207 E-score |
| AGCAAAAA | -0.141 E-score |
| CGGCGGAA | -0.346 E-score |
| ATTAGGAA | -0.0892 E-score |
| CAAAGCTG | -0.0568 E-score |
| ATGCCTGC | 0.00111 E-score |
| AATGGATC | -0.0454 E-score |
| CGCCTATA | 0.00134 E-score |
| ATAATACC | 0.174 E-score |
| CTTCAAAC | -0.0389 E-score |
| ATCAACTC | 0.07 E-score |
| ACGCGAAG | -0.115 E-score |
| AATGGTGC | -0.156 E-score |
| TCGCCACA | -0.0289 E-score |
| CCCAATAA | -0.0545 E-score |
| GCCGCGAC | -0.351 E-score |
| ACAACACA | 0.0629 E-score |
| CCCTTTGC | -0.417 E-score |
| CGGCTTTC | -0.235 E-score |
| CCCAACAG | -0.0786 E-score |
| CCCGTAGA | -0.0912 E-score |

| Sequence | binding signal |
| --- | --- |
| AGCGTAAC | 0.0187 E-score |
| ATATTCCG | 0.263 E-score |
| GGGGGGGA | -0.456 E-score |
| AAGGGAGG | -0.323 E-score |
| ACGTGCTC | -0.158 E-score |
| CGTATCGA | 0.0045 E-score |
| GAGCGGGA | -0.356 E-score |
| AGGAAAGA | -0.0268 E-score |
| GGCAGCAC | -0.241 E-score |
| CTAGGTTA | -0.132 E-score |
| CCGATACA | 0.103 E-score |
| GGAATAAA | 0.107 E-score |
| CGGAACTC | -0.02 E-score |
| GTAACGTA | 0.0638 E-score |
| ACCGCTCC | -0.253 E-score |
| CATCTTGA | -0.0688 E-score |
| CCCTGTTA | -0.156 E-score |
| CCTTACCA | -0.205 E-score |
| GACGGGAA | -0.272 E-score |
| ACCTGCGA | 0.00856 E-score |
| GCAGCGGA | -0.0182 E-score |
| CAACAGGA | -0.111 E-score |
| ATGAATGA | 0.164 E-score |
| ACACCAAA | 0.217 E-score |
| CCTACGGC | -0.167 E-score |

| Sequence | binding signal |
| --- | --- |
| AATTCAAT | 0.175 E-score |
| AATTGAGA | -0.0173 E-score |
| CAAGATGA | -0.0205 E-score |
| ATCCGATA | 0.0421 E-score |
| AACCCGCT | -0.3 E-score |
| TATTAGGA | 0.0627 E-score |
| GAGCGTCA | -0.263 E-score |
| CGCACGCC | -0.233 E-score |
| GACCCGCC | -0.294 E-score |
| ATATTGAC | 0.129 E-score |
| ATTCCGTG | 0.0566 E-score |
| ATTAAGTA | 0.347 E-score |
| CGTGGTGC | -0.343 E-score |
| AGCAAATG | 0.0985 E-score |
| CGACGCAG | -0.163 E-score |
| CATCGCCC | -0.345 E-score |
| ATCACGGC | -0.0249 E-score |
| AACTTCTG | 0.221 E-score |
| AGGCAGAC | -0.257 E-score |
| CTCGGCGC | -0.293 E-score |
| CTGAAATA | 0.125 E-score |
| AATACCCG | -0.0221 E-score |
| GTATTTTA | 0.411 E-score |
| GCCCAATA | 0.0351 E-score |
| ACCAGAGG | -0.0915 E-score |

| Sequence | binding signal |
| --- | --- |
| AAACGCTA | 0.21 E-score |
| TCCTAACA | 0.0481 E-score |
| AGTGGTGG | -0.162 E-score |
| TCGCTCAA | 0.0119 E-score |
| AGGTCTAA | 0.0149 E-score |
| AAGGTCTC | -0.199 E-score |
| ACCTGTCA | 0.0239 E-score |
| CGTGAATA | 0.0233 E-score |
| ACTTACAT | 0.349 E-score |
| CAACCGGG | -0.357 E-score |
| AGACCTCG | -0.163 E-score |
| CGGTAGCA | 0.23 E-score |
| GAGAACCC | -0.287 E-score |
| GCTTATCA | -0.0929 E-score |
| CAGGTGAA | -0.105 E-score |
| AATTCGAC | 0.0657 E-score |
| ATCCCTCC | -0.317 E-score |
| CTGGTACC | 0.0466 E-score |
| GGACTCAA | -0.137 E-score |
| TCGAGAGA | 0.172 E-score |
| CATTGACG | 0.0483 E-score |
| CAACCCTG | -0.0639 E-score |
| CCGACAAC | -0.067 E-score |
| AGAGACAT | 0.0316 E-score |
| ATGGACTG | -0.0223 E-score |

| Sequence | binding signal |
| --- | --- |
| GCTGATCC | -0.104 E-score |
| AGGGCCTG | -0.274 E-score |
| TCCCATAA | -0.0253 E-score |
| CAAGTCGG | -0.034 E-score |
| CGTGCTGA | -0.0953 E-score |
| AGTCTTGA | 0.0243 E-score |
| CAAAAACG | 0.0375 E-score |
| ATGTATGG | 0.305 E-score |
| ACGAGATG | -0.0516 E-score |
| GGTAAACA | 0.232 E-score |
| GCTTTTCC | -0.154 E-score |
| CGTATAGA | 0.0326 E-score |
| CATCGCTA | 0.0612 E-score |
| AGGAATAA | 0.101 E-score |
| ATTAGGAC | 0.0342 E-score |
| ACACTCCT | -0.0653 E-score |
| GTAGTGCA | 0.0847 E-score |
| CCTTAAGG | -0.289 E-score |
| GACATATA | 0.277 E-score |
| ACATCGCT | -0.196 E-score |
| ACGGCCAT | -0.0865 E-score |
| CGCTACAG | 0.00389 E-score |
